# In PubChem BioAssay (NCATS):
# The list shows a part of the results. Shown are side measurements of this screen, not its main read-out; they come without a call. Most of these compounds were active or inconclusive in the main read-out, so they are no random draw.
# Assay: qHTS Assay for Lipid Storage Modulators (AID 1519)
# Details: Drosophila S3 cells, BODIPY lipid droplet/cell ratio, laser cytometry; measured here: cell count channel max response; cells loaded with oleic acid
# Procedure, shortened: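 Cells seeded at 5,000 per well were treated with compounds over a concentration series and loaded with oleic acid (400 uM, as added). Lipid droplet fluorescence (488 nm excitation, 500-530 nm channel) was read by laser-scanning cytometry and normalized to 20 uM Triacsin C.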
row,SMILES,max response [%]
1,CN(C)Cc1ccccc1-c1ccc2ncnc(N(C)C)c2c1,30.5
2,CCNc1ncc2nc(-c3ccccc3)c(=O)n(CCOC)c2n1,35.6
3,O=C(Oc1ccccc1)N1CCC2(CC1)CCN(c1cccc(-c3ccccc3)c1)CC2,-40.1
4,OCC1NCC(O)C(O)C1O (stereo not drawn),36.7
5,COc1cc2ccc(=O)oc2c(O)c1OCC=C(C)C,71.5
6,COc1ccc(Oc2ncc3nc(-c4cc(F)cc(F)c4)c(=O)n(C[C@H]4CCCO4)c3n2)cc1,11.2
7,O=c1[nH]c2cc([N+](=O)[O-])c([N+](=O)[O-])cc2[nH]c1=O,42.1
8,C[C@@H](/C=C\c1cccc(Oc2ccc(F)cc2)c1)N(O)C(N)=O,59.6
9,Cc1cc(Cn2cnc3c2C[C@@H](C(=O)O)N(C(=O)C(c2ccccc2)c2ccccc2)C3)ccc1N(C)C,77
10,CC1c2cccc(O)c2C(O)=C2C(=O)[C@]3(O)C(O)=C(C(N)=O)C(=O)C(N(C)C)C3C(O)C21 (stereo partly drawn),32.4
11,COc1cccc(Cn2c(=O)c(-c3cccc(C#N)c3)nc3cnc(N4CCOCC4)nc32)c1,33
12,CCCn1c(=O)c(C)cn2nc(N)nc12,91.9
13,CCNc1ncc2nc(-c3ccccc3)c(=O)n(Cc3cccc(OC)c3)c2n1,23.9
14,COc1cccc(-c2cncnc2NCCc2c[nH]c3ccc(OC)cc23)c1,33.2
15,N#C[C@H](Cc1ccc(O)cc1)c1ccc(O)cc1,39
16,COc1ccc(CNc2ccnc(-c3ccoc3)n2)c(OC)c1,21.2
17,COc1ccc(-c2nc3cnc(OC)nc3n(C3CC3)c2=O)cc1,15.7
18,O=C(c1cc(C(F)(F)F)cc(C(F)(F)F)c1)N1CCC2(CC1)CN(c1ncccn1)C2,30.1
